One experiment has as its target GFP-C1QTNF4 (aa 17–329) (human, UniProt Q9BXJ3 17-329). In words: flow cytometry on cells. Background: Flow cytometry measures light scatter and fluorescence of single cells or particles in a stream.
Experiment [1] addresses GFP-C1QTNF4 domain 2 (GFP-d2, aa 168–329) (human, UniProt Q9BXJ3 168-329). In words: co-IP.

GFP-C1QTNF4 (aa 17–329), sequence (Q9BXJ3 17-329): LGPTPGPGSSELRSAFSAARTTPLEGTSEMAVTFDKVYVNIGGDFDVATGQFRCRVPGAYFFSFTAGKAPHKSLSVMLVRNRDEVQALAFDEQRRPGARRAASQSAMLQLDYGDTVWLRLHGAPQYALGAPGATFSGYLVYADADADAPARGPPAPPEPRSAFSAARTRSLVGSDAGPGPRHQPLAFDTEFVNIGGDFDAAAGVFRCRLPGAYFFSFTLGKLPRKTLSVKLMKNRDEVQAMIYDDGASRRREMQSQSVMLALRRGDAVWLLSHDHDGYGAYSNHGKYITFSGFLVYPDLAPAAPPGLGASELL

B1: Nucleolin construct R4G ([…]) (domain or fragment)
chain: not shown
Regarding B1, the binding result (with GFP-C1QTNF4 (aa 17–329); in experiment [1]) was “binds” each time.

The values are drawn from article PMC8042453 (The Journal of Biological Chemistry, 2021).
